In the RNAGym collection of RNA variant scans (doi:10.1093/nar/gkz1192):
Read counts are not given, so values of variants with three or more changes are uncertain.

B1: CPEB3 Ribozyme (parent)
chain: UAACAGGGGGCCACAGCAGAAGCGUUCACGUCGCAGCCCCUGUCAGAUUCUGGUGAAUCUGCGAAUUCUGCUGUAUAUCUC

Variants of: B1
Assay: self-cleavage, relative activity (ratio to wild type); higher = more cleavage; in vitro, sequencing
Summary of the method: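 CPEB3 self-cleaving ribozyme mutant libraries were made by rounds of error-prone PCR, barcoded, and transcribed in vitro with T7 RNA polymerase for 5 hours at 37°C. Cleavage occurred during transcription and a 15 min DNase I step before EDTA stop. RNAs were reverse transcribed with template switching and Illumina-sequenced, with DNA sequencing mapping barcodes to variants. Relative activity is the variant's cleaved/total read fraction divided by wild type's (minimum 5 reads), averaged across three batches.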

Variant | self-cleavage
A2G G7C A21C U49A A65U | 0.17
A2G G7C A21G U78A | 0.1
A2G G7U A13U A18G | 0.13
A2G G7U A15C C17U A20U U72C A75G | 0.04
A2G G7U A15G U25C U43C U51A | 0.04
A2G G7U A64G U78C | 0.22
A2G G8A A13G | 0.53
A2G G8A A15U | 0.08
A2G G8A A20C U41A A47U | 0.07
A2G G8A A20U U74C A75U | 0.04
A2G G8A U26C U66C | 0.28
A2G G8A U43A U67C U69C | 0.06
A2G G8C G9C A18U A45G C50U U76C | 0.08
A2G G8C G9U A18U | 0.33
A2G G8C U41C | 0.47
A2G G8U A20G U25A U41C U43C A77G | 0.23
A2G G8U G73A | 0.5
A2G G8U U25C U41C A47G U80C | 0.43
A2G G8U U41C G61A U80A | 0.33
A2G G9A A15U A18G U25C | 0.31
A2G G9A A18U G24A U66C | 0.27
A2G G9A A21U U25C U43A U66C U78C | 0.06
A2G G9A A35U U51A U80A | 0.04
A2G G9A A35U U67A U72G | 0.05

Variant | self-cleavage
A2G G9A A45G | 0.07
A2G G9A A65G | 0.06
A2G G9A A75G A77G | 0.13
A2G G9A C11A A18C A35G U72C A75U | 0.05
A2G G9A G36U A64U U76C | 0.03
A2G G9A U41C A77G | 0.32
A2G G9A U60A A64U U67C A77G U80G | 0.03
A2G G9A U69C | 0.43
A2G G9A U78C | 0.08
A2G G9U A15U A45U A65G | 0.2
A2G G9U A20U U25C A47G U49C | 0.28
A2G G9U A28U A56U | 0.05
A2G G9U C12U A18C C40U | 0.31
A2G G9U U25C U48A C50U U60C | 0.07
A2G G9U U26A U49C | 0.08
A2G G10A A18U U43C A64U U74A | 0.07
A2G G10A A20G U51A | 0.4
A2G G10A C11U U25C | 0.05
A2G G10A C34A U41A U78C | 0.04
A2G G10A G24A A56U A64G | 0.05
A2G G10A U31C U41A U74G U78C | 0.04
A2G G10A U69A U74C | 0.2
A2G G10U A15U | 0.28
A2G G10U C59U | 0.29

Variant | self-cleavage
A2G G10U G24A A35G U43C U80A | 0.04
A2G G10U G24A U26C U49C C79A U80C | 0.04
A2G G16A A47G | 0.09
A2G G16A C40G A64G U69A | 0.24
A2G G16A C40G U69A | 0.17
A2G G16A U25A C34G A35G A57G | 0.15
A2G G16A U60C U72C | 0.15
A2G G16C C23U U25C U66C U72A | 0.13
A2G G16U A28G C29U G46C U60C A75U | 0.16
A2G G16U U51C U54C U78C | 0.09
A2G G19A C29U U43C A45U | 0.04
A2G G19U A28U | 0.05
A2G G19U G61C | 0.2
A2G G22A A47U A64G U80C | 0.31
A2G G22A G63A | 0.18
A2G G22A U25C A28U U41C U80C | 0.05
A2G G22C A28G | 0.08
A2G G24A A35G U78C U80A | 0.23
A2G G24A U26C A45G U74C A75U | 0.09
A2G G24A U31C U51A U67A U69A | 0.31
A2G G24C A28G A35G U43G U49A U51A | 0.04
A2G G24C U25C U31C U51C U60A | 0.35
A2G G30A U48C U69C A77G | 0.05
A2G G30A U67C | 0.11

Variant | self-cleavage
A2G G30U A35U A47G U54C A57G U72C | 0.07
A2G G30U U43C C79U | 0.12
A2G G33A A47G A64G | 0.06
A2G G33A C38A A47G U48C U72C U78C | 0.05
A2G G33A G36U U80C | 0.31
A2G G33U A56U U67C | 0.15
A2G G36A A45U U74C | 0.07
A2G G36U U67C U74C U78C | 0.06
A2G G42A U51C U58C | 0.07
A2G G53U U72A U80C | 1.17
A2G G63U U78C | 0.61
A2G U25A C34U A57G U69C | 0.07
A2G U25A C37G A57G | 0.74
A2G U25A U26A U41C A47G C50A U72C | 0.11
A2G U25A U41C A64G | 0.22
A2G U25A U49C U78A U80C | 0.19
A2G U25C A28U U48C U54C U80C | 0.13
A2G U25C A45C A56G U67C | 0.1
A2G U25C A45G U48C A75C | 0.09
A2G U25C A56U U58C | 0.31
A2G U25C A77G | 0.26
A2G U25C C32A U41C U66C | 0.26
A2G U25C C39A | 0.5
A2G U25C C40A | 0.19

Variant | self-cleavage
A2G U25C G30A | 0.1
A2G U25C G33C U54A | 0.39
A2G U25C G63U | 0.09
A2G U25C U26C U72A | 0.07
A2G U25C U31C A56U | 0.39
A2G U25C U31C A65G | 0.06
A2G U25C U31C U60C | 0.08
A2G U25C U41A A56G G70U U72C U78G | 0.14
A2G U25C U43G G53A C81A | 0.58
A2G U25C U54C | 0.47
A2G U25C U58C G63A | 0.07
A2G U25C U60A | 0.2
A2G U26A A45U C50G U58A U72A U78C | 0.05
A2G U26A C71U | 0.18
A2G U26A U41A | 0.06
A2G U26A U66C U69C | 0.17
A2G U26A U69A C71A | 0.08
A2G U26C A28U G33U U41C U60A | 0.06
A2G U26C A35G U41A U43C U74A | 0.09
A2G U26C A35G U49A U78C | 0.35
A2G U26C A35G U78C | 0.94
A2G U26C A64C C68A | 0.1
A2G U26C A65C U69A | 0.21
A2G U26C A77G | 0.25

Variant | self-cleavage
A2G U26C C29U U49C | 0.16
A2G U26C C44U U54C | 0.1
A2G U26C C79U | 0.68
A2G U26C G30A C34A A75C | 0.31
A2G U26C G36A G46A A56U U72G | 0.04
A2G U26C G63A A75G | 0.13
A2G U26C U31A U41C U76C A77U | 0.25
A2G U26C U31G | 0.28
A2G U26C U48A | 0.33
A2G U26C U48C U58C | 0.06
A2G U26C U58A U60C | 0.04
A2G U26C U60A | 0.54
A2G U26C U60C | 0.33
A2G U26C U60C A65G U66C U69C | 0.17
A2G U31A C44U U49C | 0.06
A2G U31A C50G A77U | 0.14
A2G U31A G46A U48C U51A A56U A75C | 0.07
A2G U31A U43C U78A | 0.09
A2G U31A U72G | 0.31
A2G U31C A35G U43C | 0.68
A2G U31C A35G U43C A45U | 0.32
A2G U31C C39U G73A | 0.9
A2G U31C C59A | 0.26
A2G U31C U41C U72C U76C | 0.71

Variant | self-cleavage
A2G U31C U41G | 0.41
A2G U31C U43A U60C U69C U74A U80C | 0.27
A2G U31C U51C U66C U72C U80C | 0.14
A2G U31C U54A | 0.3
A2G U31C U58A | 0.07
A2G U31G U43C A45G U48A U74C | 0.24
A2G U31G U51C U67A | 0.07
A2G U31G U58C G70U U72C | 0.05
A2G U41A A45G | 0.55
A2G U41A A56G U58A U78A | 0.07
A2G U41A U49C U66C U69C | 0.03
A2G U41A U60C | 0.08
A2G U41C A45U | 0.27
A2G U41C A45U U72G | 0.2
A2G U41C A47G U51C U80C | 0.71
A2G U41C G42A A45G U49C U66C U67A | 0.17
A2G U41C U67A U69A | 0.28
A2G U41C U69A | 0.51
A2G U41C U78C | 0.88
A2G U43A A47C | 0.43
A2G U43A A57U U69C U72A | 0.13
A2G U43A U54A | 1.04
A2G U43A U72A | 0.77
